Screen size: about 150,000 compounds; about 540 (0.36%) showed an effect of 50% or more. The list shows a part of the results.

This assay has as its system Plasmodium falciparum. Kind of assay: Primary screen in NF54 nanoGlo assay, in single point, at 2uM, 72h; a lower Z score goes with more inhibition. As to conditions: timepoint 72 hour. It counts as functional, Erythrocyte.
For `CCn1ccc2cc(CCC(=O)NCc3ccco3)ccc21`, the “% Inhibition” value is given as -6% and the Z score stood at 0.96.
On to `O=C(Nc1ccc2c(c1)OCO2)C1CCN(C(=O)c2ccc(N3CCCC3=O)cc2)CC1`, for which the “% Inhibition” value came to 13% and the Z score was -1.53.
With `COc1ccc(C(=O)N2C[C@H]3CCCC(=O)N[C@H]3C2)c(C)c1`, the “% Inhibition” value is given as -5% and the Z score came out at 0.8.
For the molecule `O=C(OCc1cn(-c2ccc(F)cc2Cl)nn1)c1cscn1`, the “% Inhibition” value is listed as -11% and the Z score amounted to 1.57.
Regarding `CC(CC1CCOCC1)NC(C)C(=O)Nc1ccccc1` (stereo unspecified), the “% Inhibition” value is reported as -7% and the Z score was 0.66.
As to `Cc1ccc(NC(C)(C)C(=O)NC2CCN(Cc3ccco3)CC2)cc1`, the “% Inhibition” value was -7% and the Z score was found to be 0.63.
`COc1ccc([C@@H]2CC[C@@H](C(=O)O)N2S(=O)(=O)c2ccsc2)cc1`: the “% Inhibition” value is -7% and the Z score is on record as 1.48.
Turning to `COC[C@@H]1CCCN1C(=O)Nc1cc(-c2nnc(C)o2)ccc1OC`, the “% Inhibition” value is -9% and the Z score is on record as 1.09.
On to `Cc1occc1C(=O)NCC(F)(F)CN`, for which the “% Inhibition” value was -6% and the Z score was 0.67.
On to `FCCOc1ccc(-c2cccc3c2OCCCO3)nc1`, for which the “% Inhibition” value is recorded as -13% and the Z score turned out to be 1.28.
The matching figures for `Cc1cccc(N2CCN(c3cc(C)nc4nc(-c5ccccc5)nn34)C[C@@H]2C)c1`: 9% and -1.33.
On to `Cc1oc2nc(CN(C)Cc3ccc(F)cc3)nc(N)c2c1C`, for which the “% Inhibition” value was -2% and the Z score is listed as 0.2.
On to `CCc1ccc(S(=O)(=O)Nc2cccc(C3OCCCO3)c2)cc1`, for which the “% Inhibition” value is on record as -2% and the Z score is reported as 0.25.
With `Cc1ccc2nc(CN3CC[C@H](N4CCOCC4)[C@H](CCCO)C3)cn2c1`, the “% Inhibition” value was determined as 2% and the Z score is -0.28.
On to `O=C(NC[C@H]1CCCN(c2ncccn2)C1)C1(N2CCCC2)CCCC1`, for which the “% Inhibition” value is -1% and the Z score is 0.15.
The matching figures for `Cc1cccc(C)c1N1CCN(C(=O)c2coc(CN3CCN(C[C@H](O)C(C)C)CC3)n2)CC1`: -25% and 2.19.
For `O=C(Cc1ccsc1)NCC1(Cn2ccnc2)CC1`, the “% Inhibition” value was -4% and the Z score is on record as 0.58.
Consider `CN1CCC(Oc2nc3ccc(F)cc3o2)CC1`, for which the “% Inhibition” value was -11% and the Z score was 1.44.
Consider `CC(C)NC(=O)N[C@@H]1CC[C@H]2CCOc3ccccc3C(=O)N3CCNC[C@H]3C(=O)NC[C@H]1O2`, for which the “% Inhibition” value is -11% and the Z score was found to be 1.74.
Regarding `CN1CC(=O)N([C@H]2CCCc3cnccc32)C1=O`, the “% Inhibition” value is on record as -4% and the Z score was 0.44.
In the case of `C[C@H]1C(=O)N(c2cccc3ccccc23)CCN1Cc1ccc(F)cc1`, the “% Inhibition” value is -3% and the Z score was determined as 0.42.
In the case of `Cc1cc(C(=O)N2CC(C)(C)N(C(=O)c3cc(C)nn3C)C[C@@H]2C)n(C)n1`, the “% Inhibition” value is reported as 2% and the Z score is on record as -0.28.
With `COCCOC1CN(C(=O)C(C)(C)c2cccnc2)C1`, the “% Inhibition” value was found to be 2% and the Z score is -0.29.
Consider `O=C(CN1CCN([C@H]2CCOC2)CC1)Nc1nc2ccc(F)cc2s1`, for which the “% Inhibition” value is on record as -6% and the Z score is given as 0.81.
As for `Fc1cnccc1N[C@H]1CCCN(c2ncccn2)C1`, the “% Inhibition” value is -7% and the Z score is on record as 1.14.
For `N#Cc1ccc(CO[C@@H](CN2CCN(C(=O)c3cccs3)CC2)c2cccc(N3CCCC3)c2)cc1`, the “% Inhibition” value was -12% and the Z score is listed as 1.57.
With `Cc1oc(C)c(C(=O)NCCc2ccccn2)c1Br`, the “% Inhibition” value is given as -13% and the Z score turned out to be 1.31.
As to `O=C1NC(=O)[C@@H]2CN(C(=O)Nc3cc(F)c(F)cc3N3CCCCC3)C[C@H]12`, the “% Inhibition” value is recorded as -6% and the Z score turned out to be 1.16.
As for `CCc1nnc([C@H](C)n2ccc(C(F)(F)F)n2)o1`, the “% Inhibition” value is reported as -19% and the Z score was 2.9.
In the case of `Cc1cnc(C(=O)N[C@@H]2CCC[C@@H]2C(=O)NCCCc2ccccc2)cn1`, the “% Inhibition” value is reported as -5% and the Z score stood at 0.68.
`Cn1cc(-c2ccc3c(c2)OCC[C@@H]2CC[C@H](O)[C@@H](CNC(=O)[C@@H]4CN(C5CCC(F)(F)CC5)CCN4C3=O)O2)cn1`: the “% Inhibition” value is given as 1% and the Z score is listed as -0.11.
The matching figures for `COC(=O)NCc1ccc(N[C@H]2CCCN(c3ccccc3Cl)C2=O)cc1`: 1% and -0.08.
For `COc1cc(C(=O)NCc2noc(C3CCCC3)n2)cc(OC)c1OC`, the “% Inhibition” value is recorded as -3% and the Z score is 0.39.
Consider `CCc1ccc(CN(C)Cc2c[nH]nc2-c2ccc3cc(OC)ccc3c2)nc1`, for which the “% Inhibition” value is 10% and the Z score is on record as -1.27.
In the case of `CNC(=O)[C@@H]1CCCN1C(=O)NCc1cnc(CC(C)C)s1`, the “% Inhibition” value came to 3% and the Z score is given as -0.4.
`C[C@H]1CCc2c(cnc3c(C(=O)NC4CC4)cnn23)C1`: the “% Inhibition” value is 34% and the Z score is reported as -4.89.
Take `Cc1nsc(NC(=O)N(C)C2CCCCCC2)n1`: the “% Inhibition” value is -12% and the Z score turned out to be 1.52.
Regarding `Cc1cc(C)n(CCNCc2cc3ccc(F)cc3n(Cc3ccccn3)c2=O)n1`, the “% Inhibition” value came to 11% and the Z score is -1.47.
As to `COc1ccc(CCNC(=O)c2cc3c(=O)[nH]c(C)cn3n2)cc1OC`, the “% Inhibition” value is 61% and the Z score is listed as -7.83.
With `CN1CCN(C(=O)[C@@H]2COC3(CCN(C(=O)c4cccc(F)c4)CC3)N2C(=O)c2ccc(F)cc2)CC1`, the “% Inhibition” value is recorded as -10% and the Z score was found to be 1.57.
Take `Cn1nc2c(c1C(=O)NCc1csc(N)n1)CCCC2`: the “% Inhibition” value was 5% and the Z score is reported as -0.77.
Turning to `Cc1cc(CC(=O)NC(Cc2ccccn2)[C@H]2C[C@H](O)C2)on1` (stereo partly specified), the “% Inhibition” value was -19% and the Z score came out at 2.49.
Consider `CC[C@H](C)CN1C(=O)CNC12CCN(C(=O)c1ccc(OC)cc1)CC2`, for which the “% Inhibition” value is reported as -12% and the Z score worked out at 1.62.
`CC(=O)N(Cc1ccccc1)c1ccc2c(c1)nc(Cn1nc(C)cc1C)n2C`: the “% Inhibition” value came to 35% and the Z score is -4.52.
The matching figures for `C=CCCC(=O)N1CCC(c2ncc(C)s2)CC1`: 7% and -0.87.
Consider `CC1CC1C(=O)N(CC(=O)O)C1CCCCC1` (stereo unspecified), for which the “% Inhibition” value was -3% and the Z score amounted to 0.44.
Turning to `COCc1nc([C@@H]2CCCCCN2S(=O)(=O)c2ccccc2F)no1`, the “% Inhibition” value is reported as 10% and the Z score is -1.64.
Turning to `COCC(COC)N1CCN(C(=O)[C@@H]2Cc3c(C)cccc3O2)CC1`, the “% Inhibition” value is recorded as -16% and the Z score is 2.17.
On to `Cc1nnc(C(C)N2CCCC2Cn2cccn2)o1` (stereo unspecified), for which the “% Inhibition” value is -18% and the Z score worked out at 2.07.
On to `CCOc1ccc(NC(=O)NC(C)(C)c2cn(-c3ccccc3)nn2)cn1`, for which the “% Inhibition” value was -2% and the Z score is recorded as 0.25.
For `O=C(N1CC[C@H]1C1CCCC1)C12CC(C(F)(F)F)(C1)C2`, the “% Inhibition” value is recorded as -3% and the Z score turned out to be 0.57.
`Cc1cc([C@@H](C#N)c2ccc(Cl)cc2)c(Cl)cc1NC(=O)CS(=O)(=O)c1ccccc1`: the “% Inhibition” value is listed as -1% and the Z score is given as 0.15.
Turning to `Oc1cc(CNCCc2cnccn2)nc2c(F)cccc12`, the “% Inhibition” value is given as -8% and the Z score turned out to be 0.97.
With `Cc1cc(CNC(=O)c2ccc(-c3ccco3)[nH]c2=O)no1`, the “% Inhibition” value is reported as -8% and the Z score turned out to be 1.02.
Take `COCCNC(=O)NCC(C)(C)c1ccsc1`: the “% Inhibition” value was -3% and the Z score is recorded as 0.63.
In the same order, the values of `Cn1nc(C(=O)N2CC(n3cc(-c4ccccc4)nn3)C2)ccc1=O` are -15% and 2.6.
For the molecule `COc1cc(CN2C(C)CC(O)CC2C)sn1` (stereo unspecified), the “% Inhibition” value is -7% and the Z score is 1.4.
For `Cc1nc(C)n(C2CN(S(=O)(=O)CC[C@H]3C[C@@H]3C3CC3)C2)n1`, the “% Inhibition” value is given as -3% and the Z score came out at 0.39.
Turning to `C=CCc1cc(C(=O)N[C@H](C(=O)O)C2CC2)ccc1OC`, the “% Inhibition” value is on record as -12% and the Z score stood at 1.49.
`CC(C)(C)CC(=O)N1CCC[C@H]1C(=O)N[C@H]1CC[C@H](NC(=O)c2ccccc2)CC1`: the “% Inhibition” value is recorded as -3% and the Z score worked out at 0.3.
On to `COCCN1C[C@@H](C(=O)N2CCN(c3ncccn3)CC2)CCC1=O`, for which the “% Inhibition” value was -11% and the Z score stood at 1.42.
With `COc1ccc(C2Nc3ccc(C)cc3[C@H]3OCC[C@@H]23)cc1` (stereo partly specified), the “% Inhibition” value is listed as -3% and the Z score was 0.48.
For the molecule `CC(C)(C)NC(=O)N(CC(=O)N1CCn2cccc2[C@H]1c1ccc(Cl)cc1)C1CC1`, the “% Inhibition” value is reported as -7% and the Z score was 0.92.
As to `O=C1[C@@H]2C[C@H](F)CN2C(=O)N1CCc1cscn1`, the “% Inhibition” value is 5% and the Z score is listed as -0.52.
On to `CCN(CC)CCOC(=O)c1cccc(C)c1N`, for which the “% Inhibition” value is 2% and the Z score is listed as -0.24.
`CCOc1ccc(CNC(=O)c2nc(-c3oc4ccc(C)cc4c3C)no2)cc1OC`: the “% Inhibition” value is -9% and the Z score was 1.33.
Turning to `Cc1cnc(C(=O)NC2CCC3(CC2)COC3)c(C)c1`, the “% Inhibition” value is 3% and the Z score was -0.49.
On to `CCC(C)C(=O)NCc1csc(NC(=O)C(C)CC)n1` (stereo unspecified), for which the “% Inhibition” value is -1% and the Z score came to 0.18.
The matching figures for `COC(=O)[C@]1(F)CCN(C(=O)c2n[nH]c3ccccc23)C1`: -4% and 0.31.
On to `Cc1cccc(CN2[C@H](CNC(=O)c3ccncc3F)CN(C)C(=O)[C@@H]2C)c1`, for which the “% Inhibition” value is -9% and the Z score was determined as 1.28.
In the case of `Cc1onc(C(=O)N2CC[C@H]3[C@H](CCC(=O)N3CC(C)C)C2)c1CO`, the “% Inhibition” value is reported as -2% and the Z score is listed as 0.34.
Regarding `CCOc1cc(CNC(=O)[C@H]2CCCN(C(=O)c3ccccc3Cl)C2)cc(OCC)c1OCC`, the “% Inhibition” value is given as -6% and the Z score came to 1.03.
Take `CCN(Cc1cccc(C)c1)CN1C(=O)N[C@@]2(CCCCc3ccccc32)C1=O`: the “% Inhibition” value is -8% and the Z score worked out at 1.13.
The matching figures for `Cc1csc(NC(=O)CC[C@H]2CCCO2)n1`: -8% and 1.19.
`O=C(NCCc1cccs1)C1CCN(S(=O)(=O)N2CCCC2)CC1`: the “% Inhibition” value is reported as -18% and the Z score is 3.4.
Consider `Cc1ccccc1OCC(=O)Nc1ccc(C(=O)N2CCCCC2)cc1`, for which the “% Inhibition” value is on record as -12% and the Z score was found to be 1.1.
In the same order, the values of `CCC1(CC)CN(Cc2nc(C)c(C)n2C)CCO1` are 0% and 0.01.
On to `Cc1nccc(N2CC[C@@H](C)O[C@@H](C)C2)n1`, for which the “% Inhibition” value is 10% and the Z score was -1.26.
The matching figures for `OC[C@@H]1CCCN1Cc1ncc(-c2ccccc2)s1`: -2% and 0.17.
As to `COc1ccccc1N1CCN(C(=O)CN2C(=O)CCc3cc(Br)ccc32)CC1`, the “% Inhibition” value is reported as -1% and the Z score is on record as 0.09.
On to `CC(C)(C)n1ncc2c(=O)[nH]c(NCC3CCCC(O)C3)nc21` (stereo unspecified), for which the “% Inhibition” value is given as -11% and the Z score came to 1.34.
`Cc1ccc(N2CCN(CC(=O)N3CCN(c4ccccc4O)CC3)C2=O)cc1`: the “% Inhibition” value is -11% and the Z score stood at 1.24.
For the molecule `CC1CCN(C(=O)CN2C(=O)COc3ccc(S(=O)(=O)N4CCOCC4)cc32)CC1`, the “% Inhibition” value is recorded as 3% and the Z score is -0.27.
